Reference: PubChem BioAssay AID1865 (National Center for Advancing Translational Sciences (NCATS), 2009)
The whole screen tested about 280,000 compounds, of which about 540 (0.19%) were called active. The shares of active, inactive and inconclusive entries below differ from those in the screen. Calls come from the whole dose curve; as a rule, active = well fitted activation curve with a large enough effect; inconclusive = small, poorly fitted or top-dose-only effect; inactive = flat fitted curve, though single readings scatter. Where the call is inconclusive, the potency comes from a doubtful curve fit.

Experiment: Quantitative High-Throughput Screen for Regulators of Epigenetic Control; note: nearly all actives have a fitted effect of over 60% in size
Details: murine LDR cells, GFP reporter derepression, 30 h; series mostly up to 53.9 µM
Outline: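 Reporter derepression read as number of fluorescent GFP-positive objects, 20-120 um in size, counted by laser-scanning cytometer. Mouse LDR line with an epigenetically silenced CMV-GFP locus; compound incubation 30 h, 37 C.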
Potency is the fitted concentration of half-maximal effect; tags give direction and shape of the fitted curve.

| SMILES | Potency |
| --- | --- |
| CCOc1ccccc1N1CCN(c2nc(N)c(C#N)c(CC#N)c2C#N)CC1 | inconclusive: 31.6 µM [activator, single point] |
| COc1ccc(Cn2c(=S)[nH]c3ccccc32)cc1 | inactive |
| O=c1[nH]c2ccccc2nc1/C=C(\O)c1cccs1 | active: 22.4 µM |
| CC(C)(C)NC(=S)NNC(=O)[C@H]1C[C@@H]1c1ccccc1 | inactive |
| O=C(CSc1ncccc1-c1nc2ccccc2[nH]1)N1CCN(c2ccccc2F)CC1 | inactive |
| Cc1ccc(S(=O)(=O)c2nc(S(C)(=O)=O)sc2N(C)Cc2ccccc2)cc1 | inactive |
| O=C(COc1ccccc1Cl)Nc1nnc(S(=O)(=O)N2CCCCCC2)s1 | inconclusive: 25.1 µM [activator, single point] |
| CS(=O)(=O)c1ccc(C(=O)OCc2nnc(-c3ccc(Cl)cc3)o2)cc1[N+](=O)[O-] | inconclusive: 4.47 µM [activator, single point] |
| CCOC(=O)N1CCC(=NNS(=O)(=O)c2cccc([N+](=O)[O-])c2)CC1 | inactive |
| CCC(=O)N1CCc2cc(Br)cc(S(=O)(=O)CCC(=O)N3CCN(c4ccccc4F)CC3)c21 | inactive |
| CCOc1cc(C(=O)OCC(=O)c2c(C)[nH]c3ccccc23)ccc1OCC(=O)N1CCOCC1 | inconclusive: 1.26 µM [activator, single point] |
| Cc1ccc(NC(=O)/C(C#N)=C/c2ccc(C)s2)c(C)c1 | active: 3.16 µM |
| Nc1c(C(=O)Nc2ccc(S(=O)(=O)N3CCCC3)cc2)sc2nc3ccc(OC(F)(F)F)cc3cc12 | active: 7.94 µM |
| CCOc1ccc(NC(=S)NNC(=O)c2cc(Br)ccc2Cl)cc1 | inconclusive: 5.01 µM [activator, partial curve] |
| O=c1cc(-c2ccccc2)n2c(SCc3c(F)cccc3Cl)nnc2[nH]1 | inactive |
| COc1ccccc1N1C(C)=CC(=C(C#N)c2nc3ccccc3s2)C=C1C | inconclusive: 31.6 µM [activator, single point] |
| C=CCn1c(=O)/c(=C/c2ccc(C)o2)s/c1=C(/C#N)C(=O)c1ccccc1 | inconclusive: 15.8 µM [activator, single point] |
| Cc1ccc(NC(=O)Cn2c(=O)n(CCCCC(=O)NCc3ccccc3Cl)c(=O)c3ccccc32)cc1 | inconclusive: 28.2 µM [activator, single point] |
| COc1cc(C2c3c(-c4ccccc4O)n[nH]c3C(=O)N2Cc2ccco2)ccc1OCC(C)C (configuration not stated) | inconclusive: 22.4 µM [activator, single point] |
| CCNC(=S)/N=C(/Nc1ccc(OC)cc1)Nc1nc(C)cc(C)n1 | inconclusive: 17.8 µM [activator, single point] |
| COc1ccc(C2=NNC(c3cccnc3)=Nc3ccccc32)cc1 | inconclusive: 35.5 µM [activator, single point] |
| COc1cc(NC(=S)N2CCCC(CO)C2)c(OC)cc1Cl (configuration not stated) | inactive |
| COc1cccc(/C(O)=C/c2nc3ccc(C(=O)NCCc4ccc(Cl)cc4)cc3[nH]c2=O)c1 | active: 7.94 µM |
| Cc1sc2ncnc(SCC#N)c2c1C | inconclusive: 0.447 µM [activator, single point] |

| SMILES | Potency |
| --- | --- |
| COc1ccc(N/C=C\C(=O)c2ccc(Br)cc2)cc1OC | inconclusive: 31.6 µM [activator, single point] |
| OC1(c2ccc(OC(F)F)cc2)CSC(=Nc2cccnc2)N1C1CC1 (configuration not stated) | inactive |
| Cc1ccc(-c2csc(-c3cc4c([nH]c3=O)CC(c3ccccc3)CC4=O)n2)cc1 (configuration not stated) | inconclusive: 14.1 µM [activator, partial curve] |
| COc1cc(/C=C/C(=O)OCC(=O)c2c(N)n(C)c(=O)n(C)c2=O)ccc1OC(F)F | inconclusive: 31.6 µM [activator, single point] |
| O=C(Oc1ccccc1/C=C\C(=O)c1cc2ccccc2o1)c1ccccc1 | inconclusive: 3.55 µM [activator, single point] |
| Cc1cccc(NCc2ccc(O)c3ncccc23)c1 | inactive |
| COc1nn(-c2nc(-c3ccccc3)cc(C(F)(F)F)n2)cc1[N+](=O)[O-] | inactive |
| COc1ccc(Oc2nc(-c3ccccn3)nc3ccccc23)cc1 | inconclusive: 35.5 µM [activator, single point] |
| CCN1C(=O)c2ccccc2Sc2ccc(NC(=O)N3CCN(c4cc(C)ccc4C)CC3)cc21 | inconclusive: 31.6 µM [activator, single point] |
| Cc1ccc(NC2=C(Cl)C(=O)OC2OC(=O)c2ccccc2)c(C)c1 (configuration not stated) | active: 15.8 µM |
| CCC(=O)C1=C(c2ccc(F)cc2)N(C(=O)CC)n2cnnc2S1 | inconclusive: 2.51 µM [activator, partial curve] |
| Cc1ccc(C(=O)Nc2sc(C)c(-c3ccccc3)c2C(N)=O)cc1[N+](=O)[O-] | inactive |
| Cc1ccc(CN2CCC(N3CCC(C(=O)NCC4CCCO4)CC3)CC2)o1 (configuration not stated) | inconclusive: 25.1 µM [activator, single point] |
| CCC(=O)OCCNc1cc(Sc2nc3ccccc3s2)c2nonc2c1[N+](=O)[O-] | inconclusive: 5.62 µM [activator, single point] |
| COc1cc(NC(=O)Cn2cc(C(=O)c3ccc(F)cc3)c(=O)c3ccc(C)nc32)cc(OC)c1 | inconclusive: 25.1 µM [activator, single point] |
| CCC/C=C(\CCC)C(NC(=O)c1ccco1)c1ccc(C(=O)OC)cc1 (configuration not stated) | inconclusive: 14.1 µM [activator, single point] |
| COc1cccc(CNC(=O)c2ccc(-n3c(C)cc4c3CCC(C)C4)cc2)c1 (configuration not stated) | inactive |
| O=C(c1cccc(Oc2c(Cl)cccc2[N+](=O)[O-])c1)N1CCCCC1 | inconclusive: 35.5 µM [activator, single point] |
| Cc1onc(-c2c(Cl)cccc2Cl)c1C(=O)NC(=S)N1CCOCC1 | inconclusive: 22.4 µM [activator, single point] |
| CCCCCc1cc(=O)oc2c(C(CCN3CCCCC3)c3ccc4c(c3)OCO4)c(OC)cc(OC)c12 (configuration not stated) | inactive |
| CCOC(=O)CNC(=O)CSc1ncnc2c1cnn2-c1ccc(C)cc1 | inconclusive: 3.55 µM [activator, single point] |
| NNc1nc(C(F)(F)F)nc2ccccc12 | inactive |
| Cc1csc(NC(=O)c2sc3nc(-c4cccs4)ccc3c2N)n1 | inconclusive: 35.5 µM [activator, single point] |
| COc1ccccc1OC(C)C(=O)Nc1cccc(-c2nc3ccccc3o2)c1 (configuration not stated) | inconclusive: 28.2 µM [activator, single point] |

| SMILES | Potency |
| --- | --- |
| Cc1ccc(NC(=S)N2CCN(S(=O)(=O)c3c(F)cccc3F)CC2)cc1C | inconclusive: 14.1 µM [activator, single point] |
| N.N.O=C(O)C1(C(=O)O)CCC1.[Pt] | inactive |
| COc1cc(/C=C/C(=O)Nc2ccc3nc4n(c(=O)c3c2)CCCC4)cc(OC)c1OC | inconclusive: 15.8 µM [activator, single point] |
| N#Cc1sc2nc(C3CC3)cc(-c3ccc(Cl)cc3)c2c1N | inactive |
| CO/N=C/C(=N\Nc1ccc(OC)cc1)C(=O)c1ccc(F)cc1 | inconclusive: 35.5 µM [activator, single point] |
| CC(C)Cn1c(/C=N/Nc2nc3ccccc3[nH]2)nc2ccccc21 | inconclusive: 31.6 µM [activator, single point] |
| Cc1cc(C)c(NC(=O)Cn2cnc3c(oc4ccccc43)c2=O)c(C)c1 | inconclusive: 35.5 µM [activator, single point] |
| O=C(NC1CCCC1)c1sc(=S)n2c1[nH]c(=O)c1ccccc12 | inactive |
| CC1=CN2C(=N)/C(=C\c3cn(CCCOc4ccccc4)c4ccccc34)C(=O)N=C2S1 | inconclusive: 35.5 µM [activator, single point] |
| CCc1ccc2occ(CC(=O)Nc3ccccc3C(F)(F)F)c2c1 | inactive |
| COc1ccc(-c2nnc(SC(C(=O)c3c[nH]c4ccccc34)c3ccccc3)n2N)cc1OC (configuration not stated) | inconclusive: 31.6 µM [activator, single point] |
| COc1ccc(NC(=S)N(CCC(C)C)C(C)c2ccncc2)cc1 (configuration not stated) | inactive |
| COc1cccc(N2CC(NC(=O)c3ccc(S(=O)(=O)N4CCOCC4)cc3)CC2=O)c1 (configuration not stated) | inactive |
| Nc1ccc2c3c(cccc13)C(=O)NC2=O | active: 17.8 µM |
| Cc1cc(C(=O)C(C)Sc2cccc[n+]2[O-])c(C)n1-c1ccc(Cl)cc1 (configuration not stated) | inconclusive: 31.6 µM [activator, single point] |
| CCCCC(=O)OC1=C(C(=O)c2ccccc2)N(CCC)S(=O)(=O)c2ccccc21 | inactive |
| O=C(N/N=C\c1cc(Br)ccc1O)c1ccc(S(=O)(=O)N2CCCCC2)cc1 | inconclusive: 31.6 µM [activator, single point] |
| Cc1ccc(-n2c(C)n[nH]c2=S)cc1C | inactive |
| N#C/C(=C\C1CC=CCC1)c1nc2ccccc2[nH]1 (configuration not stated) | inactive |
| Cc1cccc(NC(=S)N/N=C2\CC(C)(C)Oc3ccc(O)cc32)c1 | inconclusive: 22.4 µM [activator, single point] |
| CN(C)C1=NCC(CSC(=N)N)S1 (configuration not stated) | inconclusive: 25.1 µM [activator, single point] |
| N#CC1=C(N)Oc2n[nH]c(-c3cccnc3)c2C1c1ccc([N+](=O)[O-])o1 (configuration not stated) | inconclusive: 31.6 µM [activator, single point] |
| NC(=O)COC(=O)c1ccccc1OCc1ccccc1 | inactive |
| CCOC(=O)c1c(-c2ccc(C)o2)csc1NC(=O)CSc1ncn[nH]1 | inactive |
